Data published in the RNAGym collection of RNA variant scans (doi:10.7554/elife.90254).
Read counts are not given, so values of variants with three or more changes are uncertain.

B1: LINE1-mini (parent)
chain: GGCAGAGCUCAACACAGCGUGGCAAAGUGGCUGUGGCUAGACUGCC

Variants of: B1
Assay: self-cleavage, relative activity (ratio to wild type); higher = more cleavage; in vitro, sequencing; the parent is a self-cleaving ribozyme

Variant | self-cleavage
A25U C37A U38C | 0.02
A26G G40U U43A C45G | 0.21
A25U C31A A41C | 0.05
A26U C31A C42U C46U | 0
A25U C42A U43A | 0.04
A26U G35A C45G | 0.06
A25G C31U G44U C45A | 0.02
G27A U34G C37A | 0.05
A26G U28A G44A | 0.52
G27A C31G U34A C46U | 0.03
G27C G30C U34A | 0.08
A25G G36U C42G | 0.08
A25G G27A G30A U32A | 0.06
G27A G29U C31G C37G U43C C45A | 0
G27A A39C C42A | 0.04
A25U G30U A39C | 1.94
A26C G29U U43A | 0.02
A25G G27U U34G | 0.16
A26C G29U G44U | 0.1
A26U U28A U32G | 0.07
A26U U32A C37U | 0.03
G27A G33U G36A C42U | 0.08
A26U C31G U38G | 0
A26C U34A G44A | 0.06

Variant | self-cleavage
A26C G29U A39C | 0.04
G27A G29U C31A C42G | 0.07
A26G G36U C45U | 0.07
G27C G29U C42G | 0.02
A26U U38A C46U | 0.15
A26U U34A G35U G40U A41G | 0.01
A26U G29U A41C C45U | 0.06
A26U C31A U38A A41G G44A C45A | 0.03
A25G U34A G44U | 0.07
A25U U28G G33U | 0.01
G27A G30U G33A A41U | 0.15
A26U G33A G35A | 0.1
G27A C31A C42A | 0.27
A26G G33A U34C | 0.08
G27A G35C C42U | 0.03
A26C G29C G30A U38A | 1.34
A25U U28G C37U U38C | 0
A26U U38C U43C | 0.03
A25G U34A G40A | 0.03
G27A U28C C37G | 0.03
A25G G35C A41G | 0.1
A26G U34A U43C | 0.01
G27A A39U C46U | 0.67
G27A C31G C37U | 0.15

Variant | self-cleavage
A26C G27A G30C | 0.36
A25U U28A C37G A39C | 0.33
G27A U32G U43G | 0
A25U U28A G36U G44C | 0.04
A26C G29U C31U | 0.04
A25G C31U C37G | 0.06
A25G G36A G44A | 0.18
G27A G29A G40A C42A | 0.12
A25G G40C C42U | 0.03
A26G G36U C42U | 0.1
A26G C31U A41G | 0
G27C G33C G36U U38A A39G | 0.03
A26C C37A A39C C46A | 0.02
A26U G35U A39G | 0.07
A26C G36U G44C | 0.09
A25U G27U G36U C42G | 0
G27A G35A A39G | 0.17
A26U A41U U43A | 0.41
A25U C37A G40A | 0.11
A25G C37U C45G | 0.01
A26G G29U G33C C42G | 0.04
G27A U43C C46G | 0.12
A25G G30A G36U C46U | 0.01
A26C U32A C46G | 0.06

Variant | self-cleavage
A26C G33A G36U G44A | 0.04
A26G U34A G40A | 0.07
A26C G30A G40U | 0.04
G27A C31U A39C G40A C46G | 0.03
A26U A41C G44U | 0.04
A25U G29A G30A | 2.36
A26U U34A G40U C46G | 0.01
A25G C31A G40U C42G | 0.01
A25G C42U C46U | 0.08
A25G G30C A41C | 0
A26U G29C C45G | 0.01
G27C A39G G40U | 0.06
A26U U32C U43G G44U | 0.04
A25U G33C G40C | 0.05
G27A A41G G44U | 0.17
G27A U38G G44U C45U | 0.03
A26U G30C G35C C37G | 0.03
A26G G27U C31G | 0.1
A25U G33C U34G | 0
A25G U34A G35U | 0.02
A26G U28A G35C C42G C45A | 0.04
A25U G33A G44A | 0.16
A26U G33A U43C | 0.04
A25G U38G G44U | 0.02

Variant | self-cleavage
G27A U28G C31A G35U A41U | 0.04
A25U C45U C46G | 0.16
A26U U28G G33A | 0.07
G27A U38C G40C C46A | 0.09
A25G U34A G36C G44A C45U | 0.01
G27A G33U G35U | 0.05
G27A G30C G36A | 0.1
A26C C31U G44A | 0.07
A26C C31A C42G | 0.04
A26C C42U C46A | 0.12
A26U G33A G36U | 0.04
G27A G30C U43C | 0.06
A26C G33U U34A | 0.05
A26G U34A A41U | 0.05
A25U G30A G44U | 0.23
A26C G33U C46U | 0.06
G27A G35C U43C | 0.03
A26C G27A G30A G40C C42G | 0.03
A26C U28A G30C U38C C42U U43G | 0.1
A26U G30C C42U | 0.08
A25G G35C U43C | 0.02
A26C G30A C37A | 0.07
A26G U38C A39C | 0.22
A26U C31A U32A | 0.07

Variant | self-cleavage
A25U G36U C42A | 0.02
G27A C31U A41U | 0.28
A25G G40A C46U | 0.02
G27A U38A A41G C46A | 0.16
G27C G29A G40A | 0.11
A26C G30U U34C | 0.54
A26G G40U C46U | 0.09
A25U C31A A39C U43C | 0.14
A26C G30A A39G | 0.09
A25U G29A C37G A41U | 0.02
A26G G36U G44U | 0.03
A26C G33U U43C C46A | 0.02
A26G G27C C31U C37A | 0.02
A26C G36U C46A | 0.11
A26U U34C U38A | 0.04
A25G G30U G36A | 0.04
A26G U32A A41U | 0.01
A25U G30A A41G | 0.32
A26G G27C G30C G40C C42A | 0.03
A25U U32G G33C | 0.03
A26U G30A A41G | 0.32
A26G G27U G30A A39G | 0.19
A26U G35U A41U C46U | 0.03
A26G G29A U43A | 0.06

Variant | self-cleavage
A26U G29U G30C | 0.11
A25U G35A A41C | 0.01
A26G G33C G40A C46U | 0.1
A26C G29U G36A | 0.1
A26U G29A C42U | 0.17
G27A U38A A39U C45U | 1.51
A26U G30C G40U | 0.09
A26G U28C G29U G36U G40C | 0.04
A25U A26U G29C G33A | 0.05
A25U G36U G40U | 0.19
A26G G33U G44C | 0.02
A25U G33U C46U | 0.05
G27C G29U A39C | 0.13
A26C A41G U43A | 0.16
A26C U32C G40A | 0.08
G27A G30U G33U U34A | 0.12
A25U U34C C37A | 0.01
A26C G30A G36C C37G | 0.12
A25U U28G C45A | 0.04
G27C C37A C46U | 0.05
A26U U28A C46A | 0.69
A25U G27U U28A C37G | 0.01
A25G C31U U34C C46A | 0.03
